Laboratory results reported in PubChem BioAssay AID588855 (National Center for Advancing Translational Sciences (NCATS), 2011).
Among all 410,000 compounds or so, about 5,000 (1.2%) were called active. The shares of active, inactive and inconclusive entries below differ from those in the screen. Calls follow the shape of the dose curve; as a rule, active = well fitted inhibition curve with a large enough effect; inconclusive = small, poorly fitted or top-dose-only effect; inactive = no such curve, though single readings can be large or run the other way. Potencies of inconclusive entries are doubtful fits and often do not repeat.

Assay: qHTS for Inhibitors of TGF-b; also: nearly all actives have a fitted effect of over 65% in size
Settings: HepG2 CAGA-GFP TGF-b/SMAD3 reporter, GFP fluorescence, 18 h, TGF-beta stimulated, 500 pg/mL final; series mostly up to 46.1 µM
In short: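 Read-out: total well GFP (ex488/em500-530) summed from mean per-cell fluorescence. Cells: HEPG2 CAGA-GFP, 1% FBS DMEM, 18 h at 37 degrees C with 500 pg/mL final TGF-beta. Unstimulated wells served as the full-inhibition control; stimulated DMSO wells = 0%.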
Potency is read from the fitted curve at half-maximal effect; tags tell the direction and shape of the fitted curve.

| Compound | Potency |
| --- | --- |
| CC(C)CC(=O)Nc1nc(=S)ss1 | inactive |
| COc1ccc(OC)c(CCNC(=O)Cn2nc(C)c3c(C)n(-c4ccc(C)cc4)nc3c2=O)c1 | inconclusive: 7.08 µM [inhibitor, partial curve] |
| O=C(Nc1cc(Cl)ccc1Cl)C1CC(=O)N(c2ccc(Br)cc2)C1 (stereo unspecified) | inactive |
| Cc1ccc(NC(=O)C(=O)NCC2OCCc3ccccc32)cc1 (stereo unspecified) | inactive |
| C/C(=N\O)c1noc(C)c1C(=O)Nc1nccs1 | inactive |
| O=C(CSc1nc2ccccc2nc1Cc1ccccc1)N1CCCCC1 | inconclusive: 20 µM [inhibitor, single point] |
| CCn1c(SCC(=O)N(Cc2ccccc2)C2CCS(=O)(=O)C2)nc2ccccc2c1=O (stereo unspecified) | inactive |
| C#CCN1C(=O)C(O)(CC(=O)/C=C/C=C/c2ccccc2)c2ccccc21 (stereo unspecified) | inconclusive: 11.2 µM [inhibitor, partial curve] |
| Cc1ccc2[nH]c(CSc3nnc(NC(=O)c4ccccc4C)s3)cc(=O)c2c1 | inconclusive: 5.01 µM [inhibitor, single point] |
| COc1ccc(NC(=O)c2cc(-c3ccco3)nc3ccccc23)cn1 | inactive |
| O=C(NCc1ccco1)C(Cc1ccccc1)N1C(=O)c2ccccc2C1=O (stereo unspecified) | inactive |
| COCCNC(=O)CN1CCN(Cc2cccc(Cl)c2)C1=O | inconclusive: 0.251 µM [inhibitor, full curve, poor fit] |
| COc1ccc(C(=O)Nc2nnc(S(=O)(=O)N(C)c3ccc(Cl)cc3)s2)cc1OC | inconclusive: 7.94 µM [inhibitor, partial curve, poor fit] |
| Cc1ccccc1CNC(=O)C(=O)NCC(c1ccco1)S(=O)(=O)c1ccccc1 (stereo unspecified) | inactive |
| Cc1ccc2c(c1)[nH]c1c(=O)n(Cc3ccccn3)cnc12 | inconclusive: 10 µM [inhibitor, partial curve, poor fit] |
| C=CCSc1nc(-c2ccc(OC)cc2)c(C#N)c(=O)n1CC=C | inconclusive: 35.5 µM [inhibitor, single point] |
| CC(C)c1ccc(-c2cc(C(=O)N3N=C(C(F)F)CC3(O)C(F)F)c3ccccc3n2)cc1 (stereo unspecified) | inconclusive: 35.5 µM [inhibitor, single point] |
| CCc1nc2c(OCc3ccc(C(F)(F)F)cc3)cccn2c1N(C)C(=O)C1CC1 | inconclusive: 20 µM [inhibitor, single point] |
| Cn1c(SCCCC(=O)c2ccc(Br)cc2)nnc1-c1ccncc1 | inconclusive: 2.82 µM [inhibitor, partial curve, poor fit] |
| Cc1nc2ccccc2c(=O)n1-c1ccc(NC(=O)c2ccc([N+](=O)[O-])cc2)cc1 | inconclusive: 15.8 µM [inhibitor, partial curve, poor fit] |
| COc1ccc(N2CCN(C(=O)CCc3c(C)nc4cc(-c5ccc(Cl)cc5)nn4c3C)CC2)cc1 | inactive |
| COc1ccc(-c2ccc(C(=O)NCCN3CCOCC3)c3occc23)c(C)c1 | inconclusive: 17.8 µM [inhibitor, single point] |
| O=C(NCCN1CCOCC1)c1ccc(Cl)c(Cl)c1 | inactive |

| Compound | Potency |
| --- | --- |
| COc1ccc(OCCN(C)C(=O)c2cccc(S(=O)(=O)N(C)c3ccccc3)c2)cc1 | inconclusive: 15.8 µM [inhibitor, single point] |
| Cc1nn(C)c(C(=O)N/N=C/c2ccc(-c3ccccc3)cc2)c1Cl | inconclusive: 35.5 µM [inhibitor, single point] |
| CCOC(=O)c1oc2ccc(/C=N/O)c(Cl)c2c1C | inactive |
| COc1ccc(C(OCC(O)CNCCc2ccccc2)c2ccc(OC)cc2)cc1 (stereo unspecified) | inconclusive: 35.5 µM [inhibitor, single point] |
| FC(F)(F)c1cnc(NNC(=S)Nc2ccc(Cl)cc2)c(Cl)c1 | active: 2.82 µM |
| O=S(=O)(Nc1ccc(N=Nc2ccccc2)cc1)c1ccccc1 | inconclusive: 35.5 µM [inhibitor, single point] |
| CCN(CC)c1ccc(NC(=O)c2cc(S(=O)(=O)N3CCc4ccccc43)cn2C)c(C)c1 | inactive |
| Cc1ccc2cc(C(c3nnnn3CC3CCCO3)N3CCc4ccccc4C3)c(=O)[nH]c2c1 (stereo unspecified) | inactive |
| C[C@H](N=C1NS(=O)(=O)c2ccccc21)C(=O)OCc1cc([N+](=O)[O-])cc2c1OCOC2 | inconclusive: 39.8 µM [inhibitor, partial curve, poor fit] |
| COc1ccc(S(=O)(=O)N2CCCC(C(=O)NCc3ccccc3)C2)cc1 (stereo unspecified) | inactive |
| COc1ccc(C[C@H]2CN3C(=NC[C@H]3Cc3ccccc3)N2CCNC(=O)CCC2CCCCC2)cc1 | inconclusive: 35.5 µM [inhibitor, single point] |
| O=C(CSc1nnc(SCc2cccc3ccccc23)s1)N/N=C/c1c[nH]c2ccccc12 | inconclusive: 28.2 µM [inhibitor, single point] |
| COc1ccc(N(CN2C(=O)C3C4C=CC(C4)C3C2=O)C(=O)c2ccco2)cc1 (stereo unspecified) | inactive |
| COc1ccc(OC)c(S(=O)(=O)N2CCC(C(=O)N3CCCCCC3)CC2)c1 | inactive |
| Cc1cccc(CNC(=O)CCCN2C(=O)CCn3nc(-c4cn(C)c5ccccc45)cc32)c1 | inactive |
| O=C(Nc1nc(-c2ccc(Cl)cc2)cs1)NC1CCCCC1 | active: 11.2 µM |
| O=c1[nH]c2ccccc2n1CCCSc1cnc2ccccc2n1 | inconclusive: 6.31 µM [inhibitor, single point] |
| CNC(=S)/N=C/NOCc1ccc(Cl)cc1Cl | active: 14.1 µM |
| O=C1CC(c2ccccc2)CC(O)=C1C=NCCN1CCNCC1 (stereo unspecified) | inactive |
| CC1CCc2nc3ccccc3c(C(=O)OCC(=O)NC3CCS(=O)(=O)C3)c2C1 (stereo unspecified) | inconclusive: 35.5 µM [inhibitor, single point] |
| COc1ccccc1-c1cc(NC=O)c2ncc(-c3cccc(C(F)(F)F)c3)n2c1 | inconclusive: 8.91 µM [inhibitor, single point] |
| C#CC(C)(CC)NC(=O)c1cc2c(n(-c3ccc(Cl)cc3)c1=O)CC(C)(C)CC2=O (stereo unspecified) | inactive |
| COc1ccc(-c2noc(CN3CCN(c4cccc(Cl)c4)CC3)n2)cc1 | inconclusive: 12.6 µM [inhibitor, partial curve, poor fit] |
